# Assay results taken from PubChem BioAssay AID540317 (National Center for Advancing Translational Sciences (NCATS), 2011).
# “And” between values parts separate entries of the source, which are not always exact repeats. Equal entries are not always repeated. The campaign covered roughly 390,000 compounds. About 2,200 (0.56%) were called active. This list was built around the results that the source calls inconclusive (neither active nor inactive); the mix of calls is not that of the screen. Calls come from the whole dose curve; as a rule, active = well fitted inhibition curve with a large enough effect; inconclusive = small, poorly fitted or top-dose-only effect; inactive = no such curve, though single readings can be large or run the other way. A potency beside an inconclusive call is a rough fit, not a confirmed value.
# Target: Chromobox protein homolog 1 (Homo sapiens) (UniProt P83916)
# UniProt P83916, sequence (P83916 whole entry, looked up): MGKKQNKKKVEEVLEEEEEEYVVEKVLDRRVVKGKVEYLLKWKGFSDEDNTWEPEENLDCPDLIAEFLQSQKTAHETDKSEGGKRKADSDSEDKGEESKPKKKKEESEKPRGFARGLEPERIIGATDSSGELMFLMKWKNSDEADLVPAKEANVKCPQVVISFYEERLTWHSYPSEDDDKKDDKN
# Experiment: HTS for Inhibitors of HP1-beta Chromodomain Interactions with Methylated Histone Tails; note: nearly all actives have a fitted effect of over 70% in size
# Settings: AlphaScreen HP1-beta / biotin-H3K9me3 peptide binding; series mostly up to 114 µM; activity change, negative = inhibition: at the top concentration
# How it was run: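 AlphaScreen: HP1-beta (50 nM) preformed 30 min with biotin-H3(1-18)K9me3 peptide (50 nM) in PBS pH 7.4, 0.01% Tween-20. Compound added for 30 min at RT, then streptavidin donor/nickel chelate acceptor beads (10 ug/mL) for 30 min.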
# Potency is the fitted concentration of half-maximal effect; tags give direction and shape of the fitted curve.
Compound,"activity change, negative = inhibition",Potency
N#CCCn1cc(C(=O)O)c(-c2cccc([N+](=O)[O-])c2)n1,inactive: 14.9%,
COc1cccc(CN2CCNCC2)c1OC,inactive: 23%,
COc1cccc(CCNCc2cccc(C(F)(F)F)c2)c1,,"inconclusive: 39.8 µM [inhibitor, partial curve, poor fit]"
COc1ccc(C2=NCC(=O)N(CC(=O)NCc3ccco3)c3sc4c(c32)CCCC4)cc1,,"inconclusive: 50.1 µM [inhibitor, partial curve]"
Cc1cccc(N2C(=O)NC(=O)/C(=C/c3cc4c(cc3[N+](=O)[O-])OCO4)C2=O)c1,,"inconclusive: 44.7 µM [inhibitor, partial curve, poor fit]"
Cc1nn(Cc2ccccc2)c(C)c1C(=O)OCC(=O)Nc1ccccc1SCC#N,,"inconclusive: 89.1 µM [inhibitor, partial curve, poor fit]"
Cc1[nH]c2ccc(OC(F)(F)F)cc2c1CCNCc1cccc([N+](=O)[O-])c1,,"inconclusive: 56.2 µM [inhibitor, partial curve, poor fit]"
Nc1ccc(C2(c3ccc(N)cc3)CCCCC2)cc1,,"inconclusive: 70.8 µM [inhibitor, partial curve]"
CCOC(=O)c1c(C)n(CCN2CCN(C)CC2)c2ccc(OC)cc12,,"inconclusive: 39.8 µM [inhibitor, single point]"
Cc1ccc(-c2cn3c(=S)[nH]nc3s2)cc1,,active: 70.8 µM
Oc1cc2c(cc1CN1CCN(c3ccccc3)CC1)OCO2,,"inconclusive: 79.4 µM [inhibitor, single point]"
C[C@]12CC[C@@H]3c4cc(O)c(O)cc4CC[C@H]3[C@@H]1CC[C@@H]2O,,"inconclusive: 17.8 µM [inhibitor, full curve, poor fit]"
CC(C)N1CCN(c2ccc(O)cc2)CC1,,"inconclusive: 39.8 µM [inhibitor, single point]"
O=C(O)c1ccc(N=Cc2c(O)n(Cc3ccc(F)cc3)c(=O)[nH]c2=O)cc1,inactive: 47.3%,
Fc1ccccc1CNCCc1c[nH]c2ccccc12,,"inconclusive: 28.2 µM [inhibitor, partial curve]"
Cc1ccccc1N1C(=O)NC(=O)/C(=C\c2cc(Br)c(N3CCOCC3)o2)C1=O,,"inconclusive: 31.6 µM [inhibitor, single point]"
O=c1[nH]c(=S)[nH]c(O)c1N=Nc1ccc(S(=O)(=O)N2CCOCC2)cc1,inactive: 18.5%,
Cc1ccc(C(=O)C2C(c3ccc(-c4ccccc4[N+](=O)[O-])o3)NC(=O)NC2(O)C(F)(F)F)cc1 (stereo not given),,"inconclusive: 70.8 µM [inhibitor, single point]"
O=C1NC(=O)[C@]2(Cc3ccccc3N3CCN(c4ccccc4)CC32)C(=O)N1Cc1ccccc1 (stereo not given in full),inactive: -2.94%,
CCN1C(=O)N(CC)C(=O)C2(Cc3ccccc3N3CCN(c4ccccc4)CC32)C1=O (stereo not given),inactive: 42%,
CC/C(=N\NC(=O)c1ccccc1)c1c(O)n(Cc2ccccc2)c(=O)[nH]c1=O,,"inconclusive: 79.4 µM [inhibitor, single point]"
COc1ccc2c(c1)NP(=S)(Oc1ccccc1)N2 (stereo not given),,"inconclusive: 44.7 µM [inhibitor, partial curve]"
O=C(O)c1cc[c]([Hg][Cl])cc1,,"inconclusive: 0.891 µM [inhibitor, full curve, poor fit]"
CC1CCN(CC#CCOc2ccc(Cl)cc2)CC1,,"inconclusive: 15.8 µM [inhibitor, full curve, poor fit]"

Compound,"activity change, negative = inhibition",Potency
CC(=O)O/C(=C1\CC2C3CC=C4CC(OC(C)=O)CCC4(C)C3CCC2(C)C1=O)C(F)(F)F (stereo not given),inactive: 4.62%,
CC1CN1P(=O)(Oc1ccc2ccccc2c1)N1CC1C (stereo not given),inactive: 23.9%,
COc1ccc(CC(=O)NC(=S)NNC(=O)COc2c(C)cccc2C)cc1,,"inconclusive: 31.6 µM [inhibitor, partial curve, poor fit]"
O=C1C=CC(=O)C=C1,,"inconclusive: 31.6 µM [inhibitor, single point] and inconclusive: 79.4 µM [inhibitor, single point]"
CN(C)c1ccc(/C=C/C=C2/C(=O)NC(=O)N(c3ccccc3)C2=O)cc1,,active: 15.8 µM
O=C(COc1ccc(Br)cc1)N1CCN(Cc2c[nH]c3ccccc23)CC1,,"inconclusive: 44.7 µM [inhibitor, partial curve]"
CCCCn1c(O)c(C(=O)/C=C/c2ccc3c(c2)OCO3)c(=O)[nH]c1=O,inactive: 24.8%,
COC(=O)C1=C(c2ccc(F)cc2OCc2ccccc2)C[C@@H]2CC[C@H]1N2C,inactive: 11.6%,
CCOc1ccc(CN(CCc2ccc3c(c2)OCO3)Cc2cccc(OC)c2)cc1,,"inconclusive: 28.2 µM [inhibitor, single point]"
O=C(O)c1cc[c]([Sb](=[O])([OH])[OH])cc1[N+](=O)[O-],,active: 0.794 µM
COc1ccc(CCNCc2ccccc2)cc1,,"inconclusive: 89.1 µM [inhibitor, single point]"
CC(C)CCC1(CN2CCCC2=O)C(=O)NC(=O)NC1=O,inactive: 26.7%,
O=C(c1c[nH]cc1-c1ccccc1)c1cccc2ccccc12,,"inconclusive: 28.2 µM [inhibitor, partial curve]"
On1ccccc1=S,,"inconclusive: 3.55 µM [inhibitor, full curve, poor fit]"
Cc1cc(C)c2c(c1)NP(=S)(c1ccccc1)N2 (stereo not given),,active: 50.1 µM
Cc1ccc(-n2sc3ccccc3c2=O)cc1,,"inconclusive: 5.01 µM [inhibitor, full curve]"
CCc1nnc(NC(=O)CCc2nc(C3=CCN(C)CC3)no2)s1,,"inconclusive: 89.1 µM [inhibitor, single point]"
CCOc1ccc(N2C(=O)/C(=C/c3ccc(C)o3)C(=O)NC2=S)cc1,,"inconclusive: 39.8 µM [inhibitor, partial curve]"
CN1C(=O)C(=Cc2ccc(N3CCOCC3)o2)C(=O)N(C)C1=S,inactive: -22.4%,
COCc1cc(C)c(C#N)c(=S)[nH]1,,"inconclusive: 39.8 µM [inhibitor, single point]"
Cc1cccc(CN2CCCN(Cc3ccc(Cl)cc3)S2(=O)=O)c1,inactive: 141%,
Cc1ccc(CNCCc2ccc(F)cc2)s1,inactive: 32.6%,
CCC(C)N1C(=O)/C(=C\c2ccc(N3CCCCCC3)cc2)C(=O)NC1=S (stereo not given),,"inconclusive: 28.2 µM [inhibitor, partial curve]"
CCN(CC)CCCN=C(C)c1c(O)n(C2CCCCC2)c(=O)[nH]c1=O,inactive: 21.2%,

Compound,"activity change, negative = inhibition",Potency
CN(c1ccccc1)c1ccc([N+](=O)[O-])c2nonc12,,"inconclusive: 56.2 µM [inhibitor, partial curve, poor fit]"
CCOc1cc2c(cc1OCC)-n1cccc1C(c1ccc(C(C)C)cc1)NC2 (stereo not given),,"inconclusive: 50.1 µM [inhibitor, partial curve]"
CCN1C(=O)/C(=C/c2ccc3c(c2)CCN3CCCCl)C(=O)NC1=S,,"inconclusive: 44.7 µM [inhibitor, partial curve]"
Cc1cccc(CN2CCN(C(=O)Cc3ccccc3)CC2)c1,,"inconclusive: 31.6 µM [inhibitor, partial curve]"
COc1ccccc1N=Nc1ccc(N)c(C)c1,,"inconclusive: 56.2 µM [inhibitor, partial curve, poor fit]"
Cc1cccc(N=Nc2ccc(N(C)C)cc2)c1,,active: 11.2 µM
CCOc1cc(-c2ccc(N)c(OCC)c2)ccc1N,,active: 8.91 µM
C/C(=N\NC(=S)Nc1ccccc1)c1c(O)n(C)c(=O)n(C)c1=O,inactive: -8.09%,
C=CCn1c(O)c(C=Nc2ccc(Cc3ccncc3)cc2)c(=O)[nH]c1=S,inactive: 48.4%,
OCC[n+]1c2ccccc2nc2ccc(N3CCOCC3)cc21,,"inconclusive: 39.8 µM [inhibitor, partial curve]"
CC(=O)O[C@H]1CCC2C3CCC4=CC(=O)CCC4=C3C=C[C@@]21C (stereo not given in full),,"inconclusive: 79.4 µM [inhibitor, single point]"
COc1ccc(CNCCc2ccc(Cl)cc2)c(OC)c1OC,,"inconclusive: 22.4 µM [inhibitor, partial curve, poor fit]"
CCOC(=O)N1CCN(Cc2cn3ccccc3n2)CC1,,"inconclusive: 20 µM [inhibitor, partial curve, poor fit]"
CCN1C(=O)NC(=O)/C(=C/c2cc(C)n(-c3sc(C)c(C)c3C#N)c2C)C1=O,,"inconclusive: 89.1 µM [inhibitor, partial curve, poor fit]"
COc1ccccc1N1CCN(Cc2ccccc2)CC1,,"inconclusive: 39.8 µM [inhibitor, partial curve]"
N#CC(C#N)=C(C#N)c1ccc(Nc2ccccc2)cc1,,"inconclusive: 31.6 µM [inhibitor, full curve]"
COC(=O)C1=C(c2ccc(F)cc2OCc2ccccc2)C[C@@H]2CC[C@H]1N2C(=O)NCc1ccc(N(C)C)cc1,,"inconclusive: 14.1 µM [inhibitor, full curve]"
CCOc1cc2c(cc1OCC)-n1cccc1C(c1ccc(OC)cc1)NC2 (stereo not given),,"inconclusive: 50.1 µM [inhibitor, partial curve, poor fit]"
Cc1cc(N(CCCl)CCCl)ccc1/C=N/N=C(\N)c1cnccn1,,"inconclusive: 31.6 µM [inhibitor, partial curve]"
Nc1ccc(Oc2cccc(Oc3ccc(N)cc3)c2)cc1,,"inconclusive: 28.2 µM [inhibitor, partial curve]"
Cc1ccc(CN(C)CCc2ccccn2)cc1,,"inconclusive: 70.8 µM [inhibitor, single point]"
CC[N+](C)(CC)CCCCOc1ccc2c(c1)C(=O)c1cc(OCCCC[N+](C)(CC)CC)ccc1-2,,"inconclusive: 14.1 µM [inhibitor, full curve]"
